Experimental data: PMC6602471
The list shows a part of the results. At the low end of the ranking, values are background and their order means little.

Biological target: T1, ETS1 (UniProt P14921)
T1 sequence: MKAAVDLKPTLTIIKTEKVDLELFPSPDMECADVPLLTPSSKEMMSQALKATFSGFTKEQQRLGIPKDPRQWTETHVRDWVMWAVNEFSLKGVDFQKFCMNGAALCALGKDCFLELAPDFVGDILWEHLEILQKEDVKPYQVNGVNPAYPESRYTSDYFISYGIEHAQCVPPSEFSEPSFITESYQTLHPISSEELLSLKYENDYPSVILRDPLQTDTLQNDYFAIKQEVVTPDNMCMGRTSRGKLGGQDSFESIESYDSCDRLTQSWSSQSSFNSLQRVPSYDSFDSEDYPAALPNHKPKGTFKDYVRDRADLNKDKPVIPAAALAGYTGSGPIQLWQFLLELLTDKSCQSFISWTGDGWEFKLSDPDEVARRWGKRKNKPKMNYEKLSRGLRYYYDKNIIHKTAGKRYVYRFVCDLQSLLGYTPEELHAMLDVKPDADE
Assay: custom PBM
Conditions: custom protein-binding microarray; buffer, salt, pH and temperature not stated; high values mean tight binding; double strand, one strand shown

Row | Sequence | binding signal (log fluorescence intensity)
1 | TGTCGGGTCAGGGAATGTAGATCACGTGAATGAAAAGTCTTGATTCGCTTGACGCTGCTG | 8.29
2 | TGTCGGGTAAGGGAATTTAGATCACGTGAATGAAAAGTCTTGATTCGCTTGACGCTGCTG | 8.18
3 | CAGAAGTGTCGTAAACGTCGGATATCCGGTTCTTCTGTCTTGATTCGCTTGACGCTGCTG | 12.1
4 | CAGCATAGGACTTCTTCCCTGAAGCGATTGATAACCGTCTTGATTCGCTTGACGCTGCTG | 8.3
5 | CTTGGACTTGACCCAACTCTGCCACGTGGGTCGTTTGTCTTGATTCGCTTGACGCTGCTG | 8.16
6 | CGGAAGTGTCGTAAACGTCTGATATCCGGTTCTTCTGTCTTGATTCGCTTGACGCTGCTG | 11.8
7 | TACTGACTTATATATGCGCATGCACATGAATAGACCGTCTTGATTCGCTTGACGCTGCTG | 8.04
8 | CAGCATAGGACTTCTTCCCTTAAGCAATTGATAACCGTCTTGATTCGCTTGACGCTGCTG | 8.13
9 | CACAATTTTTACAGTAATGTAGCACGCATAACTCCTGTCTTGATTCGCTTGACGCTGCTG | 8.1
10 | CAGCATAGGACTTCTGCCCTGAAGCAATTGATAACCGTCTTGATTCGCTTGACGCTGCTG | 8.22
11 | GCTGCTGCGGTGCATACCCCACCAGATGTGACCCCGGTCTTGATTCGCTTGACGCTGCTG | 8.36
12 | TGTCGGGGAAGGGAATGTAGATCACGTGAATGAAAAGTCTTGATTCGCTTGACGCTGCTG | 8.23
13 | TACTGAATTATATATGCGAATGCACATGAATAGACCGTCTTGATTCGCTTGACGCTGCTG | 8.08
14 | CTGGGACTTGACCCAACTCTGCCACGTGGTTCGTTTGTCTTGATTCGCTTGACGCTGCTG | 8.29
15 | CTGGGACTTGACCCAACTTTGCCACGTGGGTCGTTTGTCTTGATTCGCTTGACGCTGCTG | 8.36
16 | TAAAGGGAAGACGGTTTTGGTAGTTCCGGGTATTAAGTCTTGATTCGCTTGACGCTGCTG | 8.52
17 | CAGCATAGGACTTCTTCCCTGAAGCAATTGATAATCGTCTTGATTCGCTTGACGCTGCTG | 8.23
18 | CAGCATAGGACTTCTTCCCTGAAGCAATTGATTACCGTCTTGATTCGCTTGACGCTGCTG | 8.17
19 | CTGGGCCTTGACCCAACTCTGCCACGTGGGTCGTTTGTCTTGATTCGCTTGACGCTGCTG | 8.25
20 | GATTATTTTCTGCCCTTATTCGCACGTGCCATAACAGTCTTGATTCGCTTGACGCTGCTG | 8.15
21 | CACTATTTTTACAGTAATGTAGCACGCGTAACTCCTGTCTTGATTCGCTTGACGCTGCTG | 8.06
22 | CTGGGACTTGACCCAAATCTGCCACGTGGGTCGTTTGTCTTGATTCGCTTGACGCTGCTG | 8.22
23 | TACTGACTTATATATGCGAATGCCCATGAATAGACCGTCTTGATTCGCTTGACGCTGCTG | 8.28
24 | GCTGCTGCGGTGCATACCCCACCTGATGTGACCCCGGTCTTGATTCGCTTGACGCTGCTG | 8.18
25 | TAAAGGGAAGACTGTTGTGGTAGTTCCGGGTATTAAGTCTTGATTCGCTTGACGCTGCTG | 8.36
26 | CTGGGACTGGACCCAACTCTGCCACGTGGGTCGTTTGTCTTGATTCGCTTGACGCTGCTG | 8.21

Row | Sequence | binding signal (log fluorescence intensity)
27 | GATTAATTTCTGCCCTTATTCGCACGTGCCATAAAAGTCTTGATTCGCTTGACGCTGCTG | 8.46
28 | CTGGGACTTGACCCAACTCCGCCACGTGGGTCGTTTGTCTTGATTCGCTTGACGCTGCTG | 8.19
29 | GCTGCTGCGGTGCATACCCCACCGCATGTGACCCCGGTCTTGATTCGCTTGACGCTGCTG | 8.19
30 | TACTGACTTATATTTGCGAATGCACATGAATAGACCGTCTTGATTCGCTTGACGCTGCTG | 8.23
31 | GCTGCTGCGGTGCATACGCCACCGGATGTGACCCCGGTCTTGATTCGCTTGACGCTGCTG | 10.4
32 | GTGTATAGGATCCCATGCAACACACGTGTTAAAATGGTCTTGATTCGCTTGACGCTGCTG | 8.2
33 | GATTAATTTCTGCCCTTATTTGCACGTGCCATAACAGTCTTGATTCGCTTGACGCTGCTG | 8.21
34 | GTGTATAGGATCCCCTCCAACACACGTGTTAAAATGGTCTTGATTCGCTTGACGCTGCTG | 8.2
35 | TGTCGGGTAAGGGAATGTAGATCATGTGAATGAAAAGTCTTGATTCGCTTGACGCTGCTG | 8.37
36 | GATTAATTTCTGACCTTATTCGCACGTGCCATAACAGTCTTGATTCGCTTGACGCTGCTG | 8.31
37 | TGTCGGGTAAGGGAATGAAGATCACGTGAATGAAAAGTCTTGATTCGCTTGACGCTGCTG | 8.13
38 | TCCGGCTACCAGCTCCACCCACTTGAGGCCTTGTAGGTCTTGATTCGCTTGACGCTGCTG | 8.24
39 | TGTCGGGTAAGGGAATGTAGATCACGTGAATGAAATGTCTTGATTCGCTTGACGCTGCTG | 8.33
40 | TACCGACTTATATATGCGAATGCACATGAATAGACCGTCTTGATTCGCTTGACGCTGCTG | 8.09
41 | CAGCAAAGGACTTCTTCCCTGAAGCAATTGATAACCGTCTTGATTCGCTTGACGCTGCTG | 8.31
42 | TCCGGCTACCAGCTCCTCCCACTTCAGGCCTTGTAGGTCTTGATTCGCTTGACGCTGCTG | 8.25
43 | CGGAAGTGTCGTAAACGTCGGATATCCGGTTTTTCTGTCTTGATTCGCTTGACGCTGCTG | 11.9
44 | GCTGCTGCGATGCATACCCCACCGGATGTGACCCCGGTCTTGATTCGCTTGACGCTGCTG | 9.95
45 | TGTCGGGTAAAGGAATGTAGATCACGTGAATGAAAAGTCTTGATTCGCTTGACGCTGCTG | 8.3
46 | GGAAAAAGGCCCAGGGTAACACCGGTAGTGGGCTTAGTCTTGATTCGCTTGACGCTGCTG | 8.16
47 | GATTAATTTCTGCGCTTATTCGCACGTGCCATAACAGTCTTGATTCGCTTGACGCTGCTG | 8.2
48 | GGAAAAAGGCCCAGGGTAACACCGGAAGTGGGCTTAGTCTTGATTCGCTTGACGCTGCTG | 12
49 | TACTGACTTAGATATGCGAATGCACATGAATAGACCGTCTTGATTCGCTTGACGCTGCTG | 8.21
50 | CAGCATAGGACTTCTTCCCTGTAGCAATTGATAACCGTCTTGATTCGCTTGACGCTGCTG | 8.17
51 | TACTGACTTATATATGCGAATGCAAATGAATAGACCGTCTTGATTCGCTTGACGCTGCTG | 8.1
52 | CGGAAGTGTCGTAAACGTCGGTTATCCGGTTCTTCTGTCTTGATTCGCTTGACGCTGCTG | 9.21
